Reference: US9714221B1 (priority 2016, dated 2017)

system: MCF7 cells (breast tumor cells) WT; test: cells; settings: Homo sapiens, read-out: proliferation MCF7 (WT) IC50 (nM)

| Compound | IC50 [nM] |
| --- | --- |
| Oc1ccc2c(c1)CCCC(c1ccc(Cl)nc1)=C2c1ccc(O[C@H]2CCN(CCCF)C2)cc1 [Example 127, 6-(6-chloro-3-pyridyl)-5-[4-[(3S)-1-(3-fluoropropyl)pyrrolidin-3-yl]oxyphenyl]-8,9-dihydro-7H-benzo[7]annulen-2-ol] | 0.1 |
| Cn1cnc2ccc(C3=C(c4ccc(O[C@H]5CCN(CCCF)C5)cc4)c4ccc(O)cc4CCC3)cc21 [Example 205, 5-[4-[(3S)-1-(3-fluoropropyl)pyrrolidin-3-yl]oxyphenyl]-6-(3-methylbenzimidazol-5-yl)-8,9-dihydro-7H-benzo[7]annulen-2-ol] | 8 |
| Oc1cccc(C2=C(c3ccc(O[C@H]4CCN(CCCF)C4)cc3)c3cc(O)ccc3CCC2)c1 [Example 2, 5-[4-[(3S)-1-(3-fluoropropyl)pyrrolidin-3-yl]oxyphenyl]-6-(3-hydroxyphenyl)-8,9-dihydro-7H-benzo[7]annulen-3-ol] | 1 |
| Cc1c(F)cccc1C1=C(c2ccc(O[C@H]3CCN(CCCF)C3)cc2)c2ccc(O)cc2CCC1 [Example 33, 6-(3-fluoro-2-methyl-phenyl)-5-[4-[(3S)-1-(3-fluoropropyl)pyrrolidin-3-yl]oxyphenyl]-8,9-dihydro-7H-benzo[7]annulen-2-ol] | 0.3 |
| Cc1ccccc1C1=C(c2ccc(O[C@H]3CCN(CCCF)C3)cc2)c2ccc(O)cc2CCC1 [Example 57, 5-[4-[(3S)-1-(3-fluoropropyl)pyrrolidin-3-yl]oxyphenyl]-6-(o-tolyl)-8,9-dihydro-7H-benzo[7]annulen-2-ol] | 0.2 |
| O=C(O)c1ccc2c(c1)CCCC(c1ccccc1Cl)=C2c1ccc(O[C@H]2CCN(CCCF)C2)cc1 [Example 210, 6-(2-chlorophenyl)-5-[4-[(3S)-1-(3-fluoropropyl)pyrrolidin-3-yl]oxyphenyl]-8,9-dihydro-7H-benzo[7]annulene-2-carboxylic acid] | 0.5 |
| Oc1ccc2c(c1)CCCC(c1ccc(Cl)cc1Cl)=C2c1ccc(O[C@H]2CCN(CCCF)C2)cc1 [Example 18, 6-(2,4-dichlorophenyl)-5-[4-[(3S)-1-(3-fluoropropyl)pyrrolidin-3-yl]oxyphenyl]-8,9-dihydro-7H-benzo[7]annulen-2-ol] | 0.7 |
| Oc1ccc2c(c1)CCCC(c1ccc(OC(F)F)cc1F)=C2c1ccc(O[C@H]2CCN(CCCF)C2)cc1 [Example 116, 6-[4-(difluoromethoxy)-2-fluoro-phenyl]-5-[4-[(3S)-1-(3-fluoropropyl)pyrrolidin-3-yl]oxyphenyl]-8,9-dihydro-7H-benzo[7]annulen-2-ol] | 0.1 |
| Oc1ccc2c(c1)CCCC(c1cnc(C(F)(F)F)nc1)=C2c1ccc(O[C@H]2CCN(CCCF)C2)cc1 [Example 84, 5-[4-[(3S)-1-(3-fluoropropyl)pyrrolidin-3-yl]oxyphenyl]-6-[2-(trifluoromethyl)pyrimidin-5-yl]-8,9-dihydro-7H-benzo[7]annulen-2-ol] | 0.7 |
| Oc1ccc2c(c1)CCCC(c1ccc(OC(F)(F)F)cc1F)=C2c1ccc(O[C@H]2CCN(CCCF)C2)cc1 [Example 117, 5-[4-[(3S)-1-(3-fluoropropyl)pyrrolidin-3-yl]oxyphenyl]-6-[2-fluoro-4-(trifluoromethoxy)phenyl]-8,9-dihydro-7H-benzo[7]annulen-2-ol] | 0.5 |
| CCOc1c(F)cc(C2=C(c3ccc(O[C@H]4CCN(CCCF)C4)cc3)c3ccc(O)cc3CCC2)cc1F [Example 120, 6-(4-ethoxy-3,5-difluoro-phenyl)-5-[4-[(3S)-1-(3-fluoropropyl)pyrrolidin-3-yl]oxyphenyl]-8,9-dihydro-7H-benzo[7]annulen-2-ol] | 0.3 |
| Oc1ccc2c(c1)CCCC(c1ccc3c(c1)OC(F)(F)C(F)(F)O3)=C2c1ccc(O[C@H]2CCN(CCCF)C2)cc1 [Example 196, 5-[4-[(3S)-1-(3-fluoropropyl)pyrrolidin-3-yl]oxyphenyl]-6-(2,2,3,3-tetrafluoro-1,4-benzodioxon-6-yl)-8,9-dihydro-7H-benzo[7]annulen-2-ol] | 1 |
| CCOc1ccc(C2=C(c3ccc(O[C@H]4CCN(CCCF)C4)cc3)c3ccc(O)cc3CCC2)cc1Cl [Example 95, 6-(3-chloro-4-ethoxy-phenyl)-5-[4-[(3S)-1-(3-fluoropropyl)pyrrolidin-3-yl]oxyphenyl]-8,9-dihydro-7H-benzo[7]annulen-2-ol] | 0.5 |
| Oc1ccc2c(c1)CCCC(c1ccc3c(c1)NCCC3)=C2c1ccc(O[C@H]2CCN(CCCF)C2)cc1 [Example 158, 5-[4-[(3S)-1-(3-fluoropropyl)pyrrolidin-3-yl]oxyphenyl]-6-(1,2,3,4-tetrahydroquinolin-7-yl)-8,9-dihydro-7H-benzo[7]annulen-2-ol] | 0.5 |
| Oc1ccc2c(c1F)CCCC(c1ccc(OC(F)(F)F)cc1F)=C2c1ccc(O[C@H]2CCN(CCCF)C2)cc1 [Example 160, 1-fluoro-5-[4-[(3S)-1-(3-fluoropropyl)pyrrolidin-3-yl]oxyphenyl]-6-[2-fluoro-4-(trifluoromethoxy)phenyl]-8,9-dihydro-7H-benzo[7]annulen-2-ol] | 0.7 |
| Oc1ccc2c(c1)C(c1ccc(O[C@H]3CCN(CCCF)C3)cc1)=C(c1ccc(F)cc1Cl)CCC2 [Example 4, 6-(2-chloro-4-fluoro-phenyl)-5-[4-[(3S)-1-(3-fluoropropyl)pyrrolidin-3-yl]oxyphenyl]-8,9-dihydro-7H-benzo[7]annulen-3-ol] | 5 |

| Compound | IC50 [nM] |
| --- | --- |
| COc1ccc(C2=C(c3ccc(O[C@H]4CCN(CCCF)C4)cc3)c3ccc(O)cc3CCC2)cc1 [Example 76, 5-[4-[(3S)-1-(3-fluoropropyl)pyrrolidin-3-yl]oxyphenyl]-6-(4-methoxyphenyl)-8,9-dihydro-7H-benzo[7]annulen-2-ol] | 0.2 |
| Cc1cc(OC(F)F)ccc1C1=C(c2ccc(O[C@H]3CCN(CCCF)C3)cc2)c2ccc(O)cc2CCC1 [Example 145, 6-[4-(difluoromethoxy)-2-methyl-phenyl]-5-[4-[(3S)-1-(3-fluoropropyl)pyrrolidin-3-yl]oxyphenyl]-8,9-dihydro-7H-benzo[7]annulen-2-ol] | 0.3 |
| C[Si](C)(C)c1ccc(C2=C(c3ccc(O[C@H]4CCN(CCCF)C4)cc3)c3ccc(O)cc3CCC2)cc1 [Example 173] | 5 |
| COc1ccc(C2=C(c3ccc(O[C@H]4CCN(CCCF)C4)cc3)c3ccc(O)cc3CCC2)c(Cl)c1 [Example 89, 6-(2-chloro-4-methoxy-phenyl)-5-[4-[(3S)-1-(3-fluoropropyl)pyrrolidin-3-yl]oxyphenyl]-8,9-dihydro-7H-benzo[7]annulen-2-ol] | 0.2 |
| Oc1ccc2c(c1)CCCC(c1ccc3nonc3c1)=C2c1ccc(O[C@H]2CCN(CCCF)C2)cc1 [Example 193, 6-(2,1,3-benzoxadiazol-5-yl)-5-[4-[(3S)-1-(3-fluoropropyl)pyrrolidin-3-yl]oxyphenyl]-8,9-dihydro-7H-benzo[7]annulen-2-ol] | 0.6 |
| Cc1nc2cc(C3=C(c4ccc(O[C@H]5CCN(CCCF)C5)cc4)c4ccc(O)cc4CCC3)ccc2[nH]1 [Example 176, 5-[4-[(3S)-1-(3-fluoropropyl)pyrrolidin-3-yl]oxyphenyl]-6-(2-methyl-1H-benzimidazol-5-yl)-8,9-dihydro-7H-benzo[7]annulen-2-ol] | 5 |
| Oc1ccc2c(c1)CCCC(c1ccccc1)=C2c1ccc(O[C@H]2CCN(CCCF)C2)cc1 [Example 214, 9-(4-{[(3S)-1-(3-fluoropropyl)pyrrolidin-3-yl]oxy}phenyl]-8-phenyl-6,7-dihydro-5H-benzo[7]annulen-3-ol] | 0.1 |
| COc1cc(C)c(C2=C(c3ccc(O[C@H]4CCN(CCCF)C4)cc3)c3ccc(O)cc3CCC2)cn1 [Example 91, 5-[4-[(3S)-1-(3-fluoropropyl)pyrrolidin-3-yl]oxyphenyl]-6-(6-methoxy-4-methyl-3-pyridyl)-8,9-dihydro-7H-benzo[7]annulen-2-ol] | 0.1 |
| CCOc1ncc(C2=C(c3ccc(O[C@H]4CCN(CCCF)C4)cc3)c3ccc(O)cc3CCC2)cn1 [Example 107, 6-(2-ethoxypyrimidin-5-yl)-5-[4-[(3S)-1-(3-fluoropropyl)pyrrolidin-3-yl]oxyphenyl]-8,9-dihydro-7H-benzo[7]annulen-2-ol] | 0.5 |
| Oc1ccc2c(c1)CCCC(c1cc(F)c(Cl)cc1Cl)=C2c1ccc(O[C@H]2CCN(CCCF)C2)cc1 [Example 162, 6-(2,4-dichloro-5-fluoro-phenyl)-5-[4-[(3S)-1-(3-fluoropropyl)pyrrolidin-3-yl]oxyphenyl]-8,9-dihydro-7H-benzo[7]annulen-2-ol] | 0.6 |
| CCOc1ccc(C2=C(c3ccc(O[C@H]4CCN(CCCF)C4)cc3)c3ccc(O)cc3CCC2)c(C)c1C [Example 131, 6-(4-ethoxy-2,3-dimethyl-phenyl)-5-[4-[(3S)-1-(3-fluoropropyl)pyrrolidin-3-yl]oxyphenyl]-8,9-dihydro-7H-benzo[7]annulen-2-ol] | 0.4 |
| COc1cc(C2=C(c3ccc(O[C@H]4CCN(CCCF)C4)cc3)c3ccc(O)cc3CCC2)ccn1 [Example 109, 5-[4-[(3S)-1-(3-fluoropropyl)pyrrolidin-3-yl]oxyphenyl]-6-(2-methoxy-4-pyridyl)-8,9-dihydro-7H-benzo[7]annulen-2-ol] | 0.2 |
| CCOc1cc(C)c(C2=C(c3ccc(O[C@H]4CCN(CCCF)C4)cc3)c3ccc(O)cc3CCC2)cc1C [Example 100, 6-(4-ethoxy-2,5-dimethyl-phenyl)-5-[4-[(3S)-1-(3-fluoropropyl)pyrrolidin-3-yl]oxyphenyl]-8,9-dihydro-7H-benzo[7]annulen-2-ol] | 1 |
| O=C(O)c1ccc2c(c1)CCCC(c1ccc(OC(F)(F)F)cc1)=C2c1ccc(O[C@H]2CCN(CCCF)C2)cc1 [Example 159, 5-[4-[(3S)-1-(3-fluoropropyl)pyrrolidin-3-yl]oxyphenyl]-6-[4-(trifluoromethoxy)phenyl]-8,9-dihydro-7H-benzo[7]annulen-2-carboxylic acid] | 8 |
| O=C(O)c1ccc2c(c1F)CCCC(c1ccc(F)cc1Cl)=C2c1ccc(O[C@H]2CCN(CCCF)C2)cc1 [Example 213, 6-(2-chloro-4-fluoro-phenyl)-1-fluoro-5-[4-[(3S)-1-(3-fluoropropyl)pyrrolidin-3-yl]oxyphenyl]-8,9-dihydro-7H-benzo[7]annulene-2-carboxylic acid] | 1 |
